This note sets out measurements from publication PMC7819943, “Rice protein-binding microarrays: a tool to detect cis-acting elements near promoter regions in rice”.

The list shows a part of the results.

The experiment concerns the target T1, OsWOX13 (Oryza sativa, UniProt Q5QMM3 1-267).
T1 sequence: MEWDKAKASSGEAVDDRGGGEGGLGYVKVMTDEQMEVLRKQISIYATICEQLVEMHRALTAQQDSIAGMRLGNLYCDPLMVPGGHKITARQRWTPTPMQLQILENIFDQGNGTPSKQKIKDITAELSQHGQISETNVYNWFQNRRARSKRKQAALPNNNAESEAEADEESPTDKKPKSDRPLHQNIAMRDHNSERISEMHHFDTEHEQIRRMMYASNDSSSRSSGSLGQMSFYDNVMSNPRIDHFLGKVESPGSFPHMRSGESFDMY
The experiment is described as follows: protein-binding microarray (RPBM); PBS, 2% BSA, 51.3 ng/ul salmon testes DNA, 50 uM zinc acetate, 200 nM TF, 25 C, 1 h; high values mean tight binding. The settings on record: protein: recombinant; tags: N-terminal polyhistidine and DsRed monomer fusion (pET32a); label: CyDye5-dUTP incorporated in the synthesized complementary strand; 3' TTTTT single-stranded linker to array surface; dsDNA, one strand shown. The method in brief:
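Transcription factors, each fused N-terminally to a polyhistidine tag and DsRed, were expressed in E. coli BL21-CodonPlus and purified on Ni–NTA. A custom Agilent array was made double-stranded by primer extension with Cy5-dUTP and blocked with 2% BSA. It was incubated with 200 nM protein in PBS, 2% BSA, salmon testes DNA and 50 µM zinc acetate at 25 °C for 1 h, then washed. The binding signal is per-feature fluorescence intensity (arbitrary units) read on an Axon 4000B scanner.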
In the case of “AATATTAGATTGGCTATAGATGAATTGTAGCTAGTAGTTGCGGAGTCACCTAGTGCAG”, the binding signal is 54100 fluorescence intensity (a.u.).
On to “GATTCCTGAAAATGATTGGATTGCAAATTTAGTACGGTCACGGAGTCACCTAGTGCAG”, for which the binding signal was 23200 fluorescence intensity (a.u.).
With “GCATAAATTACCTCGCGGGCACGGGCATGGGTAGTCACTACGGAGTCACCTAGTGCAG” the figure was 4000 fluorescence intensity (a.u.).
For “CCTGATCGGATTTGGTTGGCTGGTGCTCTAGATGATGTACCGGAGTCACCTAGTGCAG”, the binding signal was 3340 fluorescence intensity (a.u.).
With “CATGATATCCAATCTCATGAAAAGTTTTATTTGAGTCTTTCGGAGTCACCTAGTGCAG” the figure was 4810 fluorescence intensity (a.u.); with “TATTTTGTAATCATTTGTTTTATATTTGAATTCCTGTCAGCGGAGTCACCTAGTGCAG”, 3710 fluorescence intensity (a.u.).
To “AATATCCTGTGATTTGATGGTATTAAGTGAACGATTTATTCGGAGTCACCTAGTGCAG” belongs 7640 fluorescence intensity (a.u.).
With “CCCAATTGGTCCTTTGACCGCCGAACCCCATGGTGTCCCCCGGAGTCACCTAGTGCAG” the figure was 4060 fluorescence intensity (a.u.).
Turning to “AGTTCCCAAGTCAATCAAATTGAGGGTAAAAGAAATTAAGCGGAGTCACCTAGTGCAG”, the binding signal was 8860 fluorescence intensity (a.u.).
To “AGCCATGCATCAACACGTAATTAAGTACTAGTTGACAGTGCGGAGTCACCTAGTGCAG” belongs 4190 fluorescence intensity (a.u.); to “GTGAGTGATTGTGTGCTTGTGTACTTGTTTGTTTGTAGTGCGGAGTCACCTAGTGCAG”, 35000 fluorescence intensity (a.u.).
With “TTTAATATCAGTGACTGATGAAAAGTGGACAATTAAGCGTCGGAGTCACCTAGTGCAG” the figure was 9430 fluorescence intensity (a.u.); with “GTAATTGAACTACTAAGCTAGTCTGATATAATCGTCAACACGGAGTCACCTAGTGCAG”, 11800 fluorescence intensity (a.u.).
Consider “GGTTAATTTGGAGCGTCACGGGCTAGTTCCGGTCGGGACTCGGAGTCACCTAGTGCAG”, for which the binding signal is 16800 fluorescence intensity (a.u.).
With “CCTGAAAATAACTAGATTGAGATGGCTAAAATGACACATGCGGAGTCACCTAGTGCAG”, the binding signal is 20200 fluorescence intensity (a.u.).
On to “AACTAATTGTATAGATCGCGACTAATTTGCGAGACGAATCCGGAGTCACCTAGTGCAG”, for which the binding signal was 26100 fluorescence intensity (a.u.).
With “GCTAGCTAATTATATAGATAGATTAAAAGAATCTTATAATCGGAGTCACCTAGTGCAG” the figure was 15700 fluorescence intensity (a.u.).
With “GTAATTGGTAGAAGCAGGAGCTGTAGATCACTGACAGGTTCGGAGTCACCTAGTGCAG” the figure was 9860 fluorescence intensity (a.u.); with “GAGTTATGATTTGTTACAATAATTGTAACTTATTGTAAAGCGGAGTCACCTAGTGCAG”, 27900 fluorescence intensity (a.u.).
To “GCCTAAATTATTGATATTCATATTTTACTATCGCCTATACCGGAGTCACCTAGTGCAG” belongs 32800 fluorescence intensity (a.u.); to “ATTCCTATCATAAAAGTAATCATGTAAATTCCCCTTGTATCGGAGTCACCTAGTGCAG”, 4440 fluorescence intensity (a.u.).
In the case of “AACGTGCGAATCAACTGTCAATTAATTCTGACATGAACCTCGGAGTCACCTAGTGCAG”, the binding signal is 21300 fluorescence intensity (a.u.).
To “TGAACTTTTGTCAATTAATGCCAATATTAGCACACGTGGTCGGAGTCACCTAGTGCAG” belongs 13800 fluorescence intensity (a.u.); to “TTAATTGCTCTTTAAGAAGAGTATAGATAAATACGAGAGGCGGAGTCACCTAGTGCAG”, 7660 fluorescence intensity (a.u.); to “TTTGTCGATTGAATGATAGTTACTCCCTTAGTTATTTTGGCGGAGTCACCTAGTGCAG”, 15100 fluorescence intensity (a.u.).
To “ACTCTAATTTAAATTAAGTTTAAGCTAATACAGACGTCTACGGAGTCACCTAGTGCAG” belongs 35600 fluorescence intensity (a.u.); to “CTAAACTAAACACAAAACACAGCTTTTGTACCATCGGGGCCGGAGTCACCTAGTGCAG”, 6170 fluorescence intensity (a.u.); to “GTGATGACAGCTAACTATTACAGATCACAACTAGGACCACCGGAGTCACCTAGTGCAG”, 14100 fluorescence intensity (a.u.).
Consider “AATACAATTAATTACAGTTAATTAAATGATAGAAAGAGTTCGGAGTCACCTAGTGCAG”, for which the binding signal is 55400 fluorescence intensity (a.u.).
With “CTATCGATTATAATTAGTCAGAAGTGAAGTGTTAAACCAACGGAGTCACCTAGTGCAG” the figure was 5520 fluorescence intensity (a.u.).
To “CTATCCTTAATTATGAATGGTTAATTTGGAAGTGCACCTACGGAGTCACCTAGTGCAG” belongs 30300 fluorescence intensity (a.u.); to “AGCTACTCAATCCAATCTAATCTCGAAACAATTTCGATAACGGAGTCACCTAGTGCAG”, 9160 fluorescence intensity (a.u.).
With “TGGAGATTGGAGTGCGGCCTAGTTCATCTTGGTATCTTATCGGAGTCACCTAGTGCAG” the figure was 9490 fluorescence intensity (a.u.); with “AATAACTAATTGCACATATTGCAACTACTTTGCGAGACGACGGAGTCACCTAGTGCAG”, 18000 fluorescence intensity (a.u.).
“GCAGGACTGTTTAGCTAATTAGGTTGCGCCATTTGATACACGGAGTCACCTAGTGCAG”: the binding signal was 8970 fluorescence intensity (a.u.).
With “ACAAAATTTGTATATACATATATAGAAACTTTGTATATGTCGGAGTCACCTAGTGCAG” the figure was 9330 fluorescence intensity (a.u.); with “AGAAATTGAGGAGCTCACTCTCCACTCCAGTCCAAAAGGGCGGAGTCACCTAGTGCAG”, 4270 fluorescence intensity (a.u.); with “CACCATTAATTATTTTGACATACTCTTATATCAAAATAGACGGAGTCACCTAGTGCAG”, 16100 fluorescence intensity (a.u.).
With “TTAACAAAATTTTGGGTGTAATTTCAAAATTTTAGGACTTCGGAGTCACCTAGTGCAG” the figure was 10800 fluorescence intensity (a.u.).
To “TATACTATTAAACTTGCTCTAATTGTTTTATGCCAGAGCCCGGAGTCACCTAGTGCAG” belongs 4210 fluorescence intensity (a.u.); to “TACAATTCACCTAATTGGAAATATGCCATTACAATTCTGCCGGAGTCACCTAGTGCAG”, 12000 fluorescence intensity (a.u.); to “GCGTGACTGATCAACGAACCAATCACATTCGTTCTTCTCCCGGAGTCACCTAGTGCAG”, 24500 fluorescence intensity (a.u.).
